The campaign covered roughly 46,000 compounds. About 60 (0.1%) were called active. Roughly 3% stayed inconclusive and do not appear here. Calls come from the whole dose curve; as a rule, active = well fitted inhibition curve with a large enough effect; inconclusive = small, poorly fitted or top-dose-only effect; inactive = no such curve, though single readings can be large or run the other way. The list shows a part of the results.

The assay is described as follows: Primary qHTS assay for Inhibitors of ovarian cancer metastasis using an organotypic tumor microenvironment (TME) model.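 For activity change, negative = inhibition: plate controls were DMSO wells for no effect and tomatine positive control wells for full effect.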 Note: nearly all actives have a fitted effect of over 65% in size. As to conditions: SKOV3ip1-GFP adhesion/invasion on 3D omental model, fluorescence; series mostly up to 45.8 µM; activity change, negative = inhibition: at the top concentration. In short, it runs like this: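 qHTS, 4-pt dose (0.36-46 umol/L); SKOV3ip1-GFP, 1,200 cells/well, no FBS; primary omental fibroblast/mesothelial co-culture 48 h pre-grown; 2 h RT + 16 h 37 C; PBS wash, 4% PFA; GFP count 488/509 nm.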
In general terms: Quantitative high-throughput screening tests each substance at several concentrations.
For `COc1ccc(Cl)cc1NC(=O)CCCN1C(=O)C(c2ccccc2)Oc2cccnc21` (configuration not stated), the compound was classed as inactive.

As to `COc1ccc(NC(=O)c2cc3c(=O)n(Cc4cccnc4)ccc3nc2C)cc1OC`, the “activity change, negative = inhibition” value was inactive: -12.7%.

Consider `COc1cc2c(cc1OC)C(COc1cc(C)cc(C)c1)N(C(=O)COc1ccccc1)CC2` (configuration not stated), for which the “activity change, negative = inhibition” value is inactive: 20.2%.

Consider `COc1ccc(-n2c(=O)c3ccccc3n(CC(=O)NCCc3ccc(OC)c(OC)c3)c2=O)cc1`, for which the “activity change, negative = inhibition” value was inactive: 14.8%.

As for `Cc1ccccc1CCNC(=O)c1cc2cc(S(=O)(=O)N3CCCCC3)ccc2n1C`, the “activity change, negative = inhibition” value was inactive: 3.94%.

Take `CCn1c(=N)c(C(=O)NC2CCCCC2)cc2c(=O)n3cc(C)ccc3nc21`: the “activity change, negative = inhibition” value was inactive: 23.7%.

In the case of `COc1ccc(C)cc1NS(=O)(=O)c1cc2c3c(c1)CC(=O)N3CCC2`, the “activity change, negative = inhibition” value was inactive: -6.86%.

Turning to `COc1ccc(NC(=O)CSc2nc3nc(C)c(Cc4ccccc4Cl)c(C)n3n2)cc1OC`, the “activity change, negative = inhibition” value is inactive: 0.317%.

As to `COc1ccc(N2Cc3cccc(C(=O)Nc4ccc(F)cc4)c3C2=O)cc1`, the outcome was inactive.

With `Cc1ccc(C2=Nc3ccccc3N(CC(=O)NCc3ccccc3Cl)C(=O)C2)cc1C`, the “activity change, negative = inhibition” value is inactive: 5.76%.

Consider `CCOCCCN(Cc1ccco1)S(=O)(=O)c1cc2c(cc1C)NC(=O)CO2`, for which the compound was classed as inactive.

Turning to `COc1ccc(-n2ncc(C(=O)Nc3cccc(C(F)(F)F)c3)c2C2CCN(C(=O)OC(C)(C)C)CC2)cc1`, the “activity change, negative = inhibition” value was inactive: -28.6%.

As for `Cc1ccccc1CN1c2ccccc2-c2nc(SCC(=O)NCc3ccccc3)ncc2S1(=O)=O`, the “activity change, negative = inhibition” value is inactive: -1.97%.

Consider `CC(C)C(=O)NCC(c1ccc2c(c1)OCO2)N1CCN(c2ccccc2)CC1` (configuration not stated), for which the “activity change, negative = inhibition” value is inactive: 3.03%.

Take `Cc1c(C(=O)NCCc2ccc(Cl)cc2)sc2nc3n(c(=O)c12)CCCC3`: the “activity change, negative = inhibition” value was inactive: -6.59%.

For `O=C(C=CC=Cc1ccc2c(c1)OCO2)N1CCCCC1`, the “activity change, negative = inhibition” value was inactive: -25.2%.

Regarding `O=C(Nc1c(C(=O)N2CCN(c3ccccc3)CC2)oc2ccccc12)c1ccco1`, the “activity change, negative = inhibition” value was inactive: -28.4%.

As for `Cc1cccn2c(=O)c(C(=O)NCCc3ccccc3)c(O)nc12`, the “activity change, negative = inhibition” value is inactive: -4.55%.

Take `Cc1cccc(-c2noc(CSc3nc(-c4ccc(F)cc4)cc(=O)[nH]3)n2)c1`: the “activity change, negative = inhibition” value is inactive: 7.06%.

Take `COc1ccc(CCNC(=O)C(=O)NCC(c2ccc3c(c2)OCO3)N2CCOCC2)cc1OC` (configuration not stated): the result was inactive.

Take `Cc1ccc2nc(CNC(=O)c3ccccc3)[nH]c2c1`: the “activity change, negative = inhibition” value was inactive: 2.58%.

In the case of `CCOc1ccc(NC(=O)c2oc3ccccc3c2NC(=O)c2c(F)cccc2F)cc1`, the result was inactive.

Turning to `N#Cc1cc(NC(=O)Nc2nnc(-c3ccncc3)s2)ccc1-c1cn[nH]c1`, the “activity change, negative = inhibition” value was inactive: -5.02%.

Turning to `COc1ccc(CNC(=O)c2cc(Nc3ccc(C)cc3C)nc3ccccc23)cc1`, the “activity change, negative = inhibition” value was inactive: 17.4%.

In the case of `CCCN(CCC)S(=O)(=O)c1ccc2c(c1)N(CC(=O)NC(C)c1ccccc1)C(=O)CS2` (configuration not stated), the “activity change, negative = inhibition” value is inactive: -20.9%.

Turning to `Cc1ccc(CSC2=Nc3ccccc3C3=NC(CC(=O)NC4CCCCC4)C(=O)N23)cc1` (configuration not stated), the “activity change, negative = inhibition” value is inactive: 23%.

As to `O=C(O)C=Cc1ccc(Cn2ccnc2)cc1`, the “activity change, negative = inhibition” value is inactive: -9.18%.

On to `COc1cccc(-n2ccn(CC(=O)c3ccc(F)cc3)c(=O)c2=O)c1`, for which the “activity change, negative = inhibition” value was inactive: -4.63%.

Consider `COc1ccccc1N1CCN(C(=O)CSc2nc3ccccc3nc2Cc2ccccc2)CC1`, for which the compound was called inactive.

As for `Cc1ccc(NC(=O)C(=O)c2cc(C)n(-c3ccc(F)cc3)c2C)cc1C`, the “activity change, negative = inhibition” value was inactive: 0.184%.

In the case of `CCOc1ccc(NC(=O)C2CCCN(S(=O)(=O)c3ccc4[nH]c(=O)ccc4c3)C2)cc1` (configuration not stated), the “activity change, negative = inhibition” value is inactive: 3.31%.

For the compound `CC(=O)c1ccc(N2C(=O)N(CC(=O)c3ccc(C)cc3)c3ccccc3S2(=O)=O)cc1`, the “activity change, negative = inhibition” value is inactive: 11%.

In the case of `COc1ccccc1N1CCN(C(=O)c2cc(-c3ccc(F)cc3)on2)CC1`, the call was inactive.

Regarding `Cc1ccc2nc(-c3ccc(NC(=O)COc4ccccc4)cc3)sc2c1`, the “activity change, negative = inhibition” value is inactive: -6.25%.

For the compound `CCN(c1cccc(C)c1)S(=O)(=O)c1nnc(NC(=O)c2ccccc2Cl)s1`, the outcome was inactive.

Turning to `Cc1c(Cl)cccc1NC(=O)CCN1C(=O)c2ccccc2Sc2ncccc21`, the “activity change, negative = inhibition” value was inactive: 2.72%.

On to `COC(=O)c1c(NC(=O)CS(=O)(=O)c2ccc(C)cc2)sc2c1CCCC2`, for which the “activity change, negative = inhibition” value was inactive: -15.6%.

For the compound `Cc1ccc2oc(=O)c3cnn(CC(=O)N4CCN(c5ccccc5)CC4)c3c2c1`, the “activity change, negative = inhibition” value was inactive: 0.827%.

Take `CCC(Sc1nc2ccccc2c2nc(-c3ccccc3)nn12)C(=O)Nc1cccc(OC)c1` (configuration not stated): the “activity change, negative = inhibition” value is inactive: -0.987%.

As to `O=C(Nc1ccc(F)cc1F)c1cc2nc(-c3ccco3)cc(C(F)(F)Cl)n2n1`, the “activity change, negative = inhibition” value was inactive: -1.23%.

For `CCC(C)NC(=O)CSc1nc2n[nH]c(C)c2c(=N)n1-c1ccc(C)c(Cl)c1` (configuration not stated), the “activity change, negative = inhibition” value is inactive: -0.588%.

On to `O=C(Nc1cccc(Cl)c1)c1ccc(F)c(S(=O)(=O)N2CCC3(CC2)OCCO3)c1`, for which the “activity change, negative = inhibition” value was inactive: -10.5%.

Regarding `Cc1cc(NC(=O)CCNS(=O)(=O)c2ccc3c(c2)oc(=O)n3C)ccc1Br`, the “activity change, negative = inhibition” value is inactive: 10.6%.

Turning to `CCN(C(=O)Cn1nnc2sc(-c3ccccc3)cc2c1=O)c1cccc(C)c1`, the compound was classed as inactive.

Take `CCN(CC)C(=O)c1cc(-c2ccc(Cl)cc2)on1`: the “activity change, negative = inhibition” value is inactive: -14.5%.

For the compound `CCN(CC)S(=O)(=O)c1ccc2c(c1)c(=O)c(C(=O)N1CCN(c3cccc(C)c3)C(C)C1)cn2C` (configuration not stated), the “activity change, negative = inhibition” value was inactive: 7.64%.

For `Cc1ccc(CNC(=O)CN(c2ccc(C)cc2)S(=O)(=O)c2c(C)nn(C)c2C)cc1`, the “activity change, negative = inhibition” value is inactive: -7.77%.

With `Cc1ccc2c(=O)cc(C(=O)Nc3ccc(S(=O)(=O)N(C)Cc4ccccc4)cc3)oc2c1`, the “activity change, negative = inhibition” value was inactive: -15.6%.

Regarding `CCC1CN(C(=O)Nc2cccc3c2CCCC3)c2ccccc2O1` (configuration not stated), the call was inactive.

Turning to `COc1ccc(NC(=O)CCn2c(=O)c3cccn3c3ccccc32)c(OC)c1`, the “activity change, negative = inhibition” value was inactive: 1.49%.

For `COC(=O)c1cnn2c(C)c(Cc3c(C)cc(C)cc3C)c(C)nc12`, the “activity change, negative = inhibition” value is inactive: 1.1%.

As to `O=C(Nc1nnc(S(=O)(=O)N2CCCc3ccccc32)s1)c1ccccc1`, the “activity change, negative = inhibition” value is inactive: 3.98%.

As for `CCOC(=O)C1CCCN(CCC(=O)Nc2cccc(C)c2)C1` (configuration not stated), the compound was classed as inactive.

With `COc1ccc(N2CC(NC(=O)C3CC3)CC2=O)cc1OC` (configuration not stated), the “activity change, negative = inhibition” value was inactive: 6.36%.

As to `CCCCn1c(C(C)NC(=O)c2ccccc2)nc2ccccc21` (configuration not stated), the compound was called inactive.

As to `COc1ccccc1-c1cc2nc(C)c(CCC(=O)NCc3cccc(Cl)c3)c(C)n2n1`, the compound was called inactive.

Take `CC(=O)c1ccc(NC(=O)CN(C)S(=O)(=O)c2cccc3nsnc23)cc1`: the “activity change, negative = inhibition” value was inactive: -4.08%.

With `Cc1cccc(N2CCN(C(=O)CCn3c(=O)c4cccn4c4cccnc43)CC2)c1C`, the “activity change, negative = inhibition” value was inactive: -1.86%.

`O=C(COc1ccccc1)Nc1cccc(-c2cn3cccnc3n2)c1`: the “activity change, negative = inhibition” value is inactive: 0.913%.

For the compound `CCOc1ccc(N(C)C(CNS(=O)(=O)c2ccccc2)c2ccccc2)cc1` (configuration not stated), the “activity change, negative = inhibition” value is inactive: -8.6%.

Regarding `Fc1cccc(-n2ncc3c2ncn2nc(-c4ccccc4Cl)nc32)c1`, the “activity change, negative = inhibition” value is inactive: 12.2%.

As for `O=C(Cn1c(=O)c2cccn2c2ccc(F)cc21)N1CCN(c2ccc(F)cc2)CC1`, the call was inactive.

The record behind these values is PubChem BioAssay AID1963576 (National Center for Advancing Translational Sciences (NCATS), 2024).
